{"source": "FireProtDB (doi:10.1016/0022-2836(74)90188-0)", "details": "Gallus gallus, 25 °C, Thermal, DSC, glycine 0.04 M, reversible: yes(>90%)"}
{"substance": "Lysozyme C wild type (letters omitted)", "values": [{"measurement": "unfolding free energy", "setting": "pH 1", "value": 9.01, "unit": "kcal/mol"}, {"measurement": "unfolding free energy", "setting": "pH 7", "value": 17.6, "unit": "kcal/mol"}]}
